B1: GPR68, Q15743 (parent)
chain: MGNITADNSSMSCTIDHTIHQTLAPVVYVTVLVVGFPANCLSLYFGYLQIKARNELGVYLCNLTVADLFYICSLPFWLQYVLQHDNWSHGDLSCQVCGILLYENIYISVGFLCCISVDRYLAVAHPFRFHQFRTLKAAVGVSVVIWAKELLTSIYFLMHEEVIEDENQHRVCFEHYPIQAWQRAINYYRFLVGFLFPICLLLASYQGILRAVRRSHGTQKSRKDQIQRLVLSTVVIFLACFLPYHVLLLVRSVWEASCDFAKGVFNAYHFSLLLTSFNCVADPVLYCFVSETTHRDLARLRGACLAFLTCSRTGRAREAYPLGAPEASGKSGAQGEEPELLTKLHPAFQTPNSPGSGGFPTGRLA

Data set [1] covers variants of B1. The data set is described as follows: cAMP reporter score (Enrich2 score, wild type = 0); higher = more signal; HEK293T, FACS bins.
Variants of B1 are the subject of data set [2]. The data set is described as follows: surface expression score (Enrich2 score, wild type = 0); higher = more signal; HEK293T, FACS bins.

Scores with a large standard error are left out. The source holds two more conditions with little spread; they are left out. Names with del lack the residues named; names with ins carry added residues between the positions named. For part of these data: How much ogerin was present is not stated here.

L364S: the cAMP reporter score in data set [1] (pH 5.5) was determined as 1.32; in data set [1] (pH 6), 0.518; in data set [1] (pH 6, modulator: ogerin) it was 0.495; in data set [1] (pH 6.5, modulator: ogerin), 0.919. Besides, the surface expression score in data set [2] amounted to 2.76.
The corresponding values for L364E are 0.8, 0.725, 0.401, 0.948 and 0.966.
The corresponding values for L364A are 1.37, 0.561, 1.12, 1.66 and 1.73.
On the same counts, the results for L364K are -0.253, 0.026, 0.591, 0.361 and -0.001.
For the variant L364M, the cAMP reporter score was 0.656 in data set [1] (pH 5.5); 0.355 in data set [1] (pH 6, modulator: ogerin); 1.14 in data set [1] (pH 6.5, modulator: ogerin). Besides, the surface expression score in data set [2] amounted to 0.493.
For L364C, the cAMP reporter score in data set [1] (pH 5.5) was determined as 0.844; in data set [1] (pH 6), 0.94; in data set [1] (pH 6, modulator: ogerin), 1.31; in data set [1] (pH 6.5, modulator: ogerin) it was 0.205. For the same variant, the surface expression score in data set [2] turned out to be 0.836.
On the same counts, the results for L364F are -0.355, 0.102, -0.302, 0.261 and 0.053.
Turning to L364P, the cAMP reporter score in data set [1] (pH 5.5) is -0.021; in data set [1] (pH 6), 1.95; in data set [1] (pH 6, modulator: ogerin) it was 0.677; in data set [1] (pH 6.5, modulator: ogerin) it was 2.75.
For the variant L364V, the cAMP reporter score in data set [1] (pH 5.5) is -0.429; in data set [1] (pH 6), 1.59.
Consider F359_P360insG, for which the cAMP reporter score in data set [1] (pH 5.5) is 0.087; in data set [1] (pH 6, modulator: ogerin) it was -0.419; in data set [1] (pH 6.5, modulator: ogerin) it was 0.391. For the same variant, the surface expression score in data set [2] is -0.686.
For G358_F359insGSG, the cAMP reporter score is 1.02 in data set [1] (pH 5.5); 0.496 in data set [1] (pH 6); 1.06 in data set [1] (pH 6, modulator: ogerin); 1.3 in data set [1] (pH 6.5, modulator: ogerin). Further, the surface expression score in data set [2] stood at 1.78.
The corresponding values for R363del are -0.118, -0.48, 0.149, 0.49 and -0.084.
The corresponding values for R363_L364insGS are 1.28, 0.418, 0.973, 2.3 and 1.15.
On the same counts, the results for P360H are -0.512, 1.12, 0.762, 0.82 and -0.424.
For P360A, the cAMP reporter score in data set [1] (pH 5.5) is 0.712; in data set [1] (pH 6), 0.51; in data set [1] (pH 6, modulator: ogerin), -0.454; in data set [1] (pH 6.5, modulator: ogerin), 0.022. For the same variant, in data set [2], the surface expression score stood at 0.98.
For the variant P360G, the cAMP reporter score in data set [1] (pH 5.5) was 0.754; in data set [1] (pH 6, modulator: ogerin), 0.45; in data set [1] (pH 6.5, modulator: ogerin), 0.743. Besides, in data set [2], the surface expression score was found to be 0.465.
Regarding P360N, the cAMP reporter score in data set [1] (pH 5.5) was 1.64; in data set [1] (pH 6), 0.532; in data set [1] (pH 6, modulator: ogerin), 1.48; in data set [1] (pH 6.5, modulator: ogerin), -0.43. The surface expression score in data set [2] is 2.41.
On to P360S, for which the cAMP reporter score in data set [1] (pH 5.5) is 0.655; in data set [1] (pH 6) it was -0.018; in data set [1] (pH 6, modulator: ogerin) it was 0.49; in data set [1] (pH 6.5, modulator: ogerin), 1.31. Further, the surface expression score in data set [2] was 0.285.
The corresponding values for P360Q are 0.069, -1.12, -0.361, -0.707 and -0.661.
For P360T, the cAMP reporter score was 0.128 in data set [1] (pH 5.5); -0.011 in data set [1] (pH 6); 0.3 in data set [1] (pH 6, modulator: ogerin); -0.296 in data set [1] (pH 6.5, modulator: ogerin). Besides, the surface expression score in data set [2] was -0.172.
On to P360L, for which the cAMP reporter score was 0.704 in data set [1] (pH 5.5); 0.297 in data set [1] (pH 6); 1.12 in data set [1] (pH 6, modulator: ogerin); 0.579 in data set [1] (pH 6.5, modulator: ogerin). The surface expression score in data set [2] was 0.714.
As for P360M, the cAMP reporter score stood at 0.817 in data set [1] (pH 5.5); 0.548 in data set [1] (pH 6); 1.05 in data set [1] (pH 6, modulator: ogerin); 1.44 in data set [1] (pH 6.5, modulator: ogerin). The surface expression score in data set [2] was 0.774.
On the same counts, the results for P360V are 0.6, 0.213, 0.062, 0.674 and -0.16.
As for P360W, the cAMP reporter score was 0.418 in data set [1] (pH 5.5); -0.426 in data set [1] (pH 6); 0.431 in data set [1] (pH 6, modulator: ogerin); -0.15 in data set [1] (pH 6.5, modulator: ogerin). In addition, the surface expression score in data set [2] is -0.289.
The corresponding values for P360R are 0.683, -0.189, 0.253, 0.689 and 0.096.
Take P360K: the cAMP reporter score in data set [1] (pH 5.5) is 0.067; in data set [1] (pH 6, modulator: ogerin), 0.027; in data set [1] (pH 6.5, modulator: ogerin), -0.291. Besides, the surface expression score in data set [2] worked out at 0.03.
Turning to P360I, the cAMP reporter score in data set [1] (pH 5.5) was 0.516; in data set [1] (pH 6) it was -0.102; in data set [1] (pH 6, modulator: ogerin), 0.246; in data set [1] (pH 6.5, modulator: ogerin), -0.039. The surface expression score in data set [2] turned out to be 0.021.
The corresponding values for P360E are -0.304, 0.13, -0.229, -0.021 and 0.03.
The corresponding values for P360C are 1.48, 1.13, 1.16, 1.23 and 1.02.
As for P360F, the cAMP reporter score in data set [1] (pH 5.5) was found to be 0.76; in data set [1] (pH 6), 1.13; in data set [1] (pH 6, modulator: ogerin), 1.13; in data set [1] (pH 6.5, modulator: ogerin), 1.2. The surface expression score in data set [2] was -0.266.
As to P360D, the cAMP reporter score in data set [1] (pH 5.5) came out at 0.527; in data set [1] (pH 6, modulator: ogerin), 0.274; in data set [1] (pH 6.5, modulator: ogerin) it was 0.768. Besides, the surface expression score in data set [2] was 0.604.
On the same counts, the results for P360Y are 0.855, 0.124, 0.378 and 1.17.
